{"source": "PubChem BioAssay AID624417", "about": "(National Center for Advancing Translational Sciences (NCATS), 2012)", "note": "Screen size: about 410,000 compounds; about 6,400 (1.6%) were called active. This list was built around the results that the source calls inconclusive (neither active nor inactive); the mix of calls is not that of the screen. Calls come from the whole dose curve; as a rule, active = well fitted inhibition curve with a large enough effect; inconclusive = small, poorly fitted or top-dose-only effect; inactive = no such curve, though single readings can be large or run the other way. Potencies of inconclusive entries are doubtful fits and often do not repeat. % is set by controls: 0 for no effect and ±100 for the full control effect; potency is the fitted concentration of half-maximal effect; tags give direction and shape of the fitted curve."}
{"target": "Glucagon-like peptide 1 receptor (Homo sapiens) (UniProt P43220)", "sequence (P43220 whole entry, looked up)": "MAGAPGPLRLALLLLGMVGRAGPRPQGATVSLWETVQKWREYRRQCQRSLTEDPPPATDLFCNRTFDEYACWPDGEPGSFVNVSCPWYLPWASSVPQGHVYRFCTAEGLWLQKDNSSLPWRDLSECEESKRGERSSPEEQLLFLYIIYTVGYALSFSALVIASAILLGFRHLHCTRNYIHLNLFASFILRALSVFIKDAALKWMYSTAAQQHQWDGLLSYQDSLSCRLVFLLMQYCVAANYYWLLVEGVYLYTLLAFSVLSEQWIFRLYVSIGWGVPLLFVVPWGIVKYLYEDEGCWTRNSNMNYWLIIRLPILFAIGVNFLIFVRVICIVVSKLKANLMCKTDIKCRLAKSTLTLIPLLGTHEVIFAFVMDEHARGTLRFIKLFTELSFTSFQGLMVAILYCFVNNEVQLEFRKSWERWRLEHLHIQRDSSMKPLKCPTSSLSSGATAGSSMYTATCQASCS", "experiment": "qHTS of GLP-1 Receptor Inverse Agonists (Inhibition Mode); note: nearly all actives have a fitted effect of over 55% in size", "details": "HEK293 GLP-1R CRE-luciferase, luminescence, 24 h, GLP-1R form is constitutively active; activity change, negative = inhibition: at 38.3 µM (top of the series) unless noted", "method_in_brief": "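Luminescence readout: a drop in cAMP-driven luciferase signal flags inverse agonism at a constitutively active GLP-1R stably expressed in HEK293. Compound exposure lasted 24 hr at 37 deg C, 5% CO2.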"}
{"smiles": "Cc1ccc(NS(=O)(=O)c2cc(C(=O)NCCSc3ccc(C)cc3)ccc2C)cc1", "Potency": "inconclusive: 20 µM [inhibitor, single point]"}
{"smiles": "Cc1ccc(-c2nc3ccc(Br)cn3c2CC(C)(C)C)cc1", "Potency": "inconclusive: 0.501 µM [inhibitor, full curve, poor fit]"}
{"smiles": "CCNC1CCC(Nc2ccnc3cc(Cl)ccc23)CC1", "note": "(stereo not given)", "Potency": "inconclusive: 1 µM [inhibitor, full curve, poor fit]"}
{"smiles": "COc1ccc(OC)c(NC(=S)NN2CCN(C)CC2)c1", "Potency": "inconclusive: 10 µM [inhibitor, single point]"}
{"smiles": "CCOC(=O)c1cc(-c2ccc(F)cc2)n(CC(=O)NCc2ccc(OC)cc2)c1C", "Potency": "inactive"}
{"smiles": "CCOC(=O)C1(Cc2ccccc2)CCN(Cc2cccn2-c2cccnc2)CC1", "Potency": "inconclusive: 28.2 µM [inhibitor, single point]"}
{"smiles": "Cc1cc(C)n(CC(O)Cn2c3ccc(Cl)cc3c3cc(Cl)ccc32)c(=O)n1", "note": "(stereo not given)", "Potency": "inconclusive: 28.2 µM [inhibitor, single point]"}
{"smiles": "CCc1nc(C)cn1S(=O)(=O)c1cc([N+](=O)[O-])ccc1Cl", "Potency": "inconclusive: 3.98 µM [inhibitor, full curve, poor fit]"}
{"smiles": "COc1cc(C)c(CN2CCC(Cc3ccccc3)CC2)cc1C", "Potency": "inconclusive: 28.2 µM [inhibitor, single point]"}
{"smiles": "CCOc1ccccc1CNC(=O)CN(c1ccc(C)cc1)S(=O)(=O)N(C)C", "Potency": "inconclusive: 28.2 µM [inhibitor, single point]"}
{"smiles": "Cc1nc2ccccc2c(=O)n1/N=C/c1ccc2ccccc2c1O", "Potency": "inconclusive: 11.2 µM [inhibitor, partial curve, poor fit]"}
{"smiles": "Cc1ccc(CN(Cc2ccco2)C(=O)COc2ccc(Cl)cc2Cl)cc1", "Potency": "inconclusive: 7.08 µM [inhibitor, partial curve, poor fit]"}
{"smiles": "COc1ccc(-c2nnc(SCC(=O)NCc3ccccc3)nc2-c2ccc(OC)c(OC)c2)cc1OC", "Potency": "inconclusive: 4.47 µM [inhibitor, full curve, poor fit]"}
{"smiles": "CCOc1ccc(NC(=O)Cc2ccc(NC(=O)N3CCCCc4ccccc43)cc2)cc1", "Potency": "inconclusive: 2.82 µM [inhibitor, full curve]"}
{"smiles": "O=C1CC(c2ccco2)CC(O)=C1C=Nc1cc(Cl)ccc1O", "note": "(stereo not given)", "Potency": "inconclusive: 10 µM [inhibitor, single point]"}
{"smiles": "COc1ccc(C(=O)CCN2CCCCCC2)cc1", "Potency": "inactive"}
{"smiles": "O=C(NCc1ccc(F)cc1)Nc1ccc(Cl)cc1", "activity change, negative = inhibition": "inconclusive: -38.8% [inhibitor] [at 7.66 µM]"}
{"smiles": "Cc1nn(-c2ccccc2)c2c1N(CCCC(=O)NCc1ccc(Cl)cc1)C(=O)CS2", "Potency": "inconclusive: 11.2 µM [inhibitor, partial curve, poor fit]"}
{"smiles": "CCN1c2ccccc2N(C)C1(C)c1ccccc1", "note": "(stereo not given)", "Potency": "inconclusive: 22.4 µM [inhibitor, single point]"}
{"smiles": "CN(C)S(=O)(=O)c1cccc(NC(=O)COC(=O)C2(c3ccccc3F)CCCC2)c1", "Potency": "inconclusive: 11.2 µM [inhibitor, single point]"}
{"smiles": "O=C(NC1CCCCC1)N1CCN(c2ccccc2Cl)CC1", "Potency": "inconclusive: 28.2 µM [inhibitor, single point]"}
{"smiles": "COc1cccc(CNC(=O)c2ccc3c(c2)N(Cc2ccc(C(F)(F)F)cc2)C(=O)c2ccccc2S3)c1OC", "Potency": "inconclusive: 3.16 µM [inhibitor, partial curve, poor fit]"}
{"smiles": "N#Cc1ccccc1S(=O)(=O)N1CCCC(c2nc3c(nnn3Cc3cccc(Cl)c3)c(=O)[nH]2)C1", "note": "(stereo not given)", "Potency": "inactive"}
{"smiles": "CCN(CC)c1ccc(/C=N/NC(=O)c2c(-c3ccccc3)noc2C)cc1", "Potency": "inconclusive: 28.2 µM [inhibitor, single point]"}
{"smiles": "O=C1[C@H]2[C@@H](/C=C/c3ccccc3)N3C(=O)CN(CCO)C(=O)[C@@]3(Cc3ccccc3)[C@H]2C(=O)N1c1ccccc1", "Potency": "inactive"}
{"smiles": "C=CCN(Cc1nc(-c2ccc(OC)cc2)no1)C(=O)c1ccc2c(c1)OCO2", "Potency": "inconclusive: 5.01 µM [inhibitor, partial curve, poor fit]"}
{"smiles": "CN(C)c1ccc(C(CNC(=O)c2ccccc2F)N2CCc3ccccc32)cc1", "note": "(stereo not given)", "Potency": "inactive"}
{"smiles": "O=C(CCN1C(=O)/C(=C/c2ccccc2F)SC1=S)NCCCn1ccnc1", "Potency": "inconclusive: 7.08 µM [inhibitor, partial curve]"}
{"smiles": "Cc1ccc(S(=O)(=O)N2CCN(C(=O)c3ccc(-n4cncn4)c([N+](=O)[O-])c3)CC2)c(C)c1", "Potency": "inconclusive: 12.6 µM [inhibitor, single point]"}
{"smiles": "CCC1C/C(=C\\c2cc(OC)c(OC)cc2OC)C(=O)/C(=C/c2cc(OC)c(OC)cc2OC)C1", "note": "(stereo not given)", "Potency": "inconclusive: 28.2 µM [inhibitor, single point]"}
